# The supplement of paper PMC9446081
# Screen size: about 39,000 compounds; about 220 (0.56%) showed activity. The list shows a part of the results.
# Tested on: Escherichia coli K-12 BW25113
# Test: relative growth (OD600 normalised to plate interquartile mean) (fraction); higher = less growth inhibition, active = 0.2 or less
# Settings: 50 µM; LB; incubation time: overnight (16-24 h)
# 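Further: static incubation at 37 °C against the wild-type strain, values averaged over two biological replicates.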
row,Compound,relative growth
1,CN1CCN(C(=O)C[C@@H]2CC[C@H]3[C@H](COc4ccc(NC(=O)c5ccc(F)c(F)c5)cc4C(=O)N3C)O2)CC1,inactive: 0.986
2,C[C@@H]1CN([C@@H](C)CO)C(=O)c2cccc(NC(=O)c3ccncc3)c2O[C@H]1CN(C)Cc1ccc(-c2ccccc2)cc1,inactive: 1.03
3,C[C@H](CO)N1C[C@H](C)[C@H](CN(C)CC2CC2)Oc2cc(C#Cc3ccccc3F)ccc2S1(=O)=O,inactive: 0.982
4,O=C(C[C@@H]1CC[C@H]2[C@@H](COC[C@H](O)CN2C(=O)c2ccc3c(c2)OCO3)O1)NCCN1CCCCC1,inactive: 0.93
5,C[C@H]1CN([C@@H](C)CO)C(=O)c2cccc(NS(C)(=O)=O)c2O[C@@H]1CN(C)S(=O)(=O)c1ccccc1,inactive: 0.916
6,COc1ccc(CN(C)C[C@H]2Oc3ccc(NC(=O)CCN4CCOCC4)cc3CC(=O)N([C@H](C)CO)C[C@@H]2C)cc1,inactive: 0.966
7,Cc1ccc(S(=O)(=O)Nc2ccc3c(c2)C(=O)N([C@@H](C)CO)C[C@H](C)[C@@H](CN(C)C(=O)Nc2c(C)noc2C)OCCCC[C@@H](C)O3)cc1,inactive: 1.03
8,C[C@H]1CN([C@@H](C)CO)S(=O)(=O)c2ccc(C#CC3CC3)cc2O[C@@H]1CN(C)Cc1ccccc1F,inactive: 1.03
9,C[C@H]1CN([C@@H](C)CO)S(=O)(=O)c2ccc(C#Cc3ccccn3)cc2O[C@@H]1CN(C)Cc1ccccc1,inactive: 1.02
10,O=C(C[C@H]1C=C[C@@H](NC(=O)CN2CCOCC2)[C@@H](CO)O1)NC1CCC1,inactive: 1.01
11,CCCNC(=O)N1C[C@H](O)COC[C@@H]2O[C@@H](CC(=O)NCc3ccncn3)CC[C@H]21,inactive: 1.01
12,C[C@H](CO)N1C[C@H](C)[C@H](CN(C)S(=O)(=O)c2cn(C)cn2)Oc2ccc(N(C)C)cc2CC1=O,inactive: 0.975
13,C[C@@H]1CN([C@H](C)CO)C(=O)Cc2cc(NS(=O)(=O)c3ccc(Cl)cc3)ccc2O[C@H]1CN(C)Cc1ccc(-c2ccccc2)cc1,inactive: 0.966
14,C[C@H]1CCCCO[C@H](CN(C)C(=O)CCC(F)(F)F)[C@@H](C)CN([C@@H](C)CO)C(=O)c2cc(NC(=O)C3CCCCC3)ccc2O1,inactive: 0.989
15,C=CCC[C@H](Cc1ccc(F)cc1)C(=O)OC[C@@H](NC(=O)[C@@H](CC=C)CC(=O)N[C@@H](CO)Cc1ccccc1)C(C)(C)C,inactive: 1.05
16,Cc1ccc(S(=O)(=O)N(C)C[C@H]2Oc3c(NS(C)(=O)=O)cccc3C(=O)N([C@@H](C)CO)C[C@H]2C)cc1,inactive: 1.02
17,C[C@H](CO)N1C[C@H](C)[C@@H](CN(C)C(=O)Nc2ccc(F)cc2)Oc2ccc(NC(=O)Cn3cnnn3)cc2CC1=O,inactive: 1
18,C[C@@H]1CCCCO[C@H](CN(C)C(=O)Nc2ccc3c(c2)OCO3)[C@@H](C)CN([C@H](C)CO)C(=O)c2cc(NS(=O)(=O)c3ccc(Cl)cc3)ccc2O1,inactive: 1.04
19,Nc1cnn([C@H]2O[C@@H](COC(=O)c3ccccc3)[C@@H](O)[C@@H]2O)c(=O)n1,inactive: 1.05

row,Compound,relative growth
1,C[C@@H]1CCCCO[C@H](CN(C)S(=O)(=O)c2cccs2)[C@@H](C)CN([C@@H](C)CO)C(=O)c2cc(NC(=O)NC3CCCCC3)ccc2O1,inactive: 1.01
2,CCCNC(=O)N1C[C@@H](O)COC[C@@H]2O[C@@H](CC(=O)N3CCOCC3)CC[C@H]21,inactive: 0.995
3,CN(C)CCNC(=O)COc1c2cccc1Cc1cccc(c1OCC(=O)NCCN(C)C)Cc1cccc(c1OCC(=O)NCCN(C)C)Cc1cccc(c1OCC(=O)NCCN(C)C)C2,inactive: 0.951
4,COCc1cn(CC[C@@H]2CC[C@H](NC(=O)CCN3CCCCC3)[C@H](CO)O2)nn1,inactive: 1
5,C[C@H](CO)N1C[C@H](C)[C@H](CN(C)C(=O)Nc2ccc(C(F)(F)F)cc2)Oc2ccc(NC(=O)Nc3ccccc3)cc2CC1=O,inactive: 1.01
6,C[C@@H]1CN([C@H](C)CO)S(=O)(=O)c2ccc(-c3cccnc3)cc2O[C@@H]1CN(C)C(=O)NC1CCCC1,inactive: 1.01
7,COc1ccc(NC(=O)Nc2ccc3c(c2)C(=O)N([C@@H](C)CO)C[C@@H](C)[C@H](CN(C)S(=O)(=O)c2ccc(OC)cc2)OCCCC[C@@H](C)O3)cc1,inactive: 1.03
8,COCC#Cc1ccc([C@H]2[C@H](CO)N3C(=O)CN(C(=O)C4CCOCC4)C[C@@H]23)cc1,inactive: 0.994
9,COc1ccc(S(=O)(=O)Nc2ccc3c(c2)C(=O)N([C@@H](C)CO)C[C@@H](C)[C@@H](CN(C)C(=O)c2ccccc2)OCCCC[C@H](C)O3)cc1,inactive: 1.02
10,COc1ccc(NC(=O)N(C)C[C@H]2OCCCC[C@@H](C)Oc3ccc(NC(=O)Nc4c(C)noc4C)cc3C(=O)N([C@H](C)CO)C[C@H]2C)cc1,inactive: 0.993
11,C[C@H](CO)N1C[C@H](C)[C@@H](CN(C)Cc2ccc(Oc3ccccc3)cc2)Oc2c(NC(=O)CCCCCC(=O)Nc3ccccc3N)cccc2C1=O,inactive: 1.01
12,O=C(Cc1ccncc1)Nc1ccc2c(c1)[C@H]1C[C@H](CC(=O)N3CCc4ccccc4C3)O[C@H](CO)[C@H]1O2,inactive: 0.993
13,CC(C)NC(=O)N(C)C[C@@H]1OCCCC[C@@H](C)Oc2ccc(NC(=O)C3CCCCC3)cc2C(=O)N([C@H](C)CO)C[C@H]1C,inactive: 0.907
14,COCOC[C@H](C)N1C[C@@H](C)[C@H](CN(C)S(=O)(=O)c2ccc(F)cc2)OCCCC[C@H](C)Oc2ccc(NC(=O)Nc3ccccc3)cc2C1=O,inactive: 1.02
15,C[C@@H]1CN([C@H](C)CO)C(=O)Cc2cc(NC(=O)CCCCCC(=O)Nc3ccccc3N)ccc2O[C@@H]1CN(C)Cc1ccc(Cl)c(Cl)c1,inactive: 1.03
16,CC[C@@H](Nc1n[nH]c(=O)[nH]c1=O)C(=O)OC,inactive: 0.98
17,C[C@H]1CN([C@@H](C)CO)C(=O)c2cccc(NC(=O)c3ccncc3)c2O[C@@H]1CN(C)S(=O)(=O)c1cn(C)cn1,inactive: 0.908
18,C[C@@H]1CN([C@@H](C)CO)C(=O)c2cc(NC(=O)Nc3ccc(F)cc3)ccc2O[C@@H](C)CCCCO[C@@H]1CN(C)S(=O)(=O)c1ccc(F)cc1,inactive: 1.04
